From patent US20190031729A1 (Pieris, published 2019) come the findings set out here.

Usually EC50 stands for the concentration at which the effect is half-maximal. A word on the Kd: it is a measure of binding affinity in units of concentration. As a reminder, the koff is the rate constant with which the complex falls apart. Usually kon stands for the rate constant with which the complex forms. What is called IC50 is the concentration that inhibits the measured activity by half.

For experiment [1], the target named is T1, human LAG-3 (huLAG-3) on cells (human, UniProt P18627 23-525).
T1 construct: whole, on cells; also called CHO-huLAG-3; CHO::huLAG-3
T1 sequence (looked up): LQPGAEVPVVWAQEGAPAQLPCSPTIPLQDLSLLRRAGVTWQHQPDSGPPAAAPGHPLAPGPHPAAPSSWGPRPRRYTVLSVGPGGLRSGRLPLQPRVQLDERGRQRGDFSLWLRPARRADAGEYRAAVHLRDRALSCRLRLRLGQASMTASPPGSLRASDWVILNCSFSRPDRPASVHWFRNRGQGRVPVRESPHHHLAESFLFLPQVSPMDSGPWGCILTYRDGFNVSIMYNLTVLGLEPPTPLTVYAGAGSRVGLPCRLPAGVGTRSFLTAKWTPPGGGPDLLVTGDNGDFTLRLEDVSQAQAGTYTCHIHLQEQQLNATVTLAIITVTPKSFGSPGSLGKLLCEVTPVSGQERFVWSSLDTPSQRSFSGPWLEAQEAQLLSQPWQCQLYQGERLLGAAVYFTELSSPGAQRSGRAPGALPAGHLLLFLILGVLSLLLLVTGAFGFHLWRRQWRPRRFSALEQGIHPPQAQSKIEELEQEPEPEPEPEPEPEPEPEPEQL
The experiment in a line: FACS on CHO cells stably transfected with huLAG-3.

Experiment [2] concerns the target T2, huLAG-3-Fc (human LAG-3 extracellular domain fused to human IgG1 Fc fragment), R&D Systems (human, UniProt P18627 23-450).
T2 construct: extracellular domain; Bought from R&D Systems; also called human LAG-3-Fc fusion; recombinant human LAG-3-Fc; not shown: human IgG1 Fc fragment
T2 sequence (looked up): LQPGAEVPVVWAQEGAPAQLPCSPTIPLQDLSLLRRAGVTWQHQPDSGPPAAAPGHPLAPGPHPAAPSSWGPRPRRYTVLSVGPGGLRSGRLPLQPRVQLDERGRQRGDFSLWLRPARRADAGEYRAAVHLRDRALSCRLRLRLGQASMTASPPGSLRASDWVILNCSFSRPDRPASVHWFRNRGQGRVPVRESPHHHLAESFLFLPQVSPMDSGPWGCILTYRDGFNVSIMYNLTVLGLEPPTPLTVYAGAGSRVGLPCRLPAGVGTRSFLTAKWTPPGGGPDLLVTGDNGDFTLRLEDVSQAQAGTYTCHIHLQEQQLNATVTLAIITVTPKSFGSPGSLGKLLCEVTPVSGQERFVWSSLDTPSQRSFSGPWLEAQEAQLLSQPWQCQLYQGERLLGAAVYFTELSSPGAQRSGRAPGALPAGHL
In words: SPR Biacore T200, huLAG-3-Fc captured by anti-human IgG Fc, mutein as analyte, 1:1 model. Here is the method:
(§1) The anti-human IgG Fc antibody (GE Healthcare) was immobilized on a CM5 sensor chip using standard amine chemistry: the carboxyl groups on the chip were activated using 1-ethyl-3-(3-dimethylaminopropyl)-carbodiimide (EDC) and N-hydroxysuccinimide (NHS). […] Residual non-reacted NHS-esters were blocked by passing a solution of 1M ethanolamine across the surface. The reference channel was treated in an analogous manner.
(§2) All measurements were performed at 25° C. […] Prior to the protein measurements three startup cycles were performed for conditioning purposes. Data were evaluated with Biacore T200 Evaluation software (V 2.0). Double referencing was used and the 1:1 binding model was used to fit the raw data.
Background: Surface plasmon resonance follows binding to a sensor surface in real time, without labels.

In experiment [3] the target is T2, huLAG-3-Fc (human LAG-3 extracellular …). In words: competition FACS: 3 nM huLAG-3-Fc binding to MHC class II on A375 cells, blocked ligand MHC class II, detection with anti-human IgG Fc-PE. How it is done: (§3) Cells were washed twice in ice-cold PBS, re-suspended in PBS-FCS and incubated 30 min on ice with phycoerythrin labelled anti-human IgG Fc antibody (Jackson Immunologics).

For experiment [4] the target is unchanged. In words: competition FACS: 3 nM huLAG-3-Fc binding to MHC class II on A375 cells, blocked ligand MHC class II; the legend entry SEQ ID NO: 3 has lost its marker, the asterisk curve is the only one left over. How it is done: as §3
For experiment [5], the target named is T1, human LAG-3 (huLAG-3) on cells. In words: FACS on CHO cells stably transfected with huLAG-3. This is another data set of the same source.
Experiment [6] has as its target T3, cynomolgus LAG-3 on CHO cells (cynomolgus).
T3 construct: whole, on cells; also called CHO::cyLAG-3; CHO cells transfected with cynomolgus LAG-3
In words: FACS on CHO cells transfected with cynomolgus LAG-3.

The target of experiment [7] is T2, huLAG-3-Fc (human LAG-3 extracellular …). The experiment in a line: competition FACS: inhibition of 3 nM huLAG-3-Fc binding to MHC class II on A375 cells. How it is done:
as §3

Experiment [8] shares this target. In words: SPR Biacore, LAG-3-Fc captured by anti-human IgG Fc, mutein as analyte. Here is the method:
as §1, §2

Experiment [9] has as its target T4, cyLAG-3-Fc (extracellular domain of cynomolgus LAG-3 fused via Factor Xa cleavage site and (G4S)3-linker to … (cynomolgus)).
T4 construct: also called recombinant cynomolgus LAG-3
The description is as above. How it is done:
as §1, §2

In experiment [10] the target is T1, human LAG-3 (huLAG-3) on cells. The experiment in a line: FACS on CHO cells transfected with huLAG-3.

B1: lipocalin mutein SEQ ID NO: 9 (designed binder)
chain: ASDEEIQDVSGTWYLKAMTVDFVCLYDVPESVTPMTLTTLEGGNLEAKVTMQIWGELQEVKAVLEKTDEPGKYTADGGKHVAYIIRSHVKDHYIFYSEGYCVGYPVPGVWLVGRDPKNNLEALEDFEKAAGARGLSTESILIPRQSETSSPGSAWSHPQFEK
notes: Human tear lipocalin mutein; also called parental lipocalin mutein; LAG-3 specific hTlc mutein
In experiment [1], B1 displayed an EC50 of 109 nM. In experiment [2], this molecule registered a Kd of 500 nM, an off-rate constant (koff) of 0.0009 s⁻¹ and a kon of 2000 M⁻¹ s⁻¹. For the same molecule, the “IC50 (read off the curve)” value in experiment [3] was approximately 100 nM.

B2: negative control lipocalin mutein (SEQ ID NO: 3) (designed binder)
chain: ASDEEIQDVSGTWYLKAMTVDRECPEMNLESVTPMTLTTLEGGNLEAKVTMLISGRSQEVKAVLEKTDEPGKYTADGGKHVAYIIRSHVKDHYIFYSEGECHGKPVPGVWLVGRDPKNNLEALEDFEKAAGARGLSTESILIPRQSETSSPG
notes: hTlc-derived negative control; also called negative-control protein
On to B2, for which the binding result in [4] is on record as “no binding (tested: 5000 nM)”; in [5] it was “no binding”.

B3: lipocalin mutein SEQ ID NO: 7 (designed binder)
chain: ASDEEIQDVSGTWYLKAMTVDSDCFWIEEWSVTPMTLTTLEGGNLEAKVTMDIFGFWQEVKAVLEKTDEPGKYTADGGKHVAYIIRSHVKDHYIFYSEGECAGFPVPGVWLVGRDPKNNLEALEDFEKAAGARGLSTESILIPRQSETSSPGSAWSHPQFEK
notes: as for B1
B3: the EC50 in [1] is 29 nM. In experiment [2], this molecule registered a dissociation constant Kd of 287 nM, a koff of 0.04 s⁻¹ and a kon of 100000 M⁻¹ s⁻¹. In addition, the “IC50 (read off the curve)” value in experiment [3] is approximately 3 nM.

B4: lipocalin mutein SEQ ID NO: 12 (designed binder)
chain: ASDEEIQDVSGTWYLKAMTVDSDCFWIDEVSVTPMTLTTLEGGNLEAKVTMDIFGFWQEVKAVLEKTDEPGKYTADGGKHVAYIIRSHVKDHYIFYSEGECAGYPVPGVWLVGRDPKNNLEALEDFEKAAGARGLSTESILIPRQSETSSPGSAWSHPQFEK
notes: Human tear lipocalin mutein; also called optimized LAG-3 specific lipocalin mutein
As for B4, the values for the concentration for a half-maximal effect (EC50) in experiment [6] and in [10] were 29.3 nM and 0.78 nM, respectively. For the same molecule, the IC50 in [7] was determined as 2.1 nM. Besides, the results for the dissociation constant Kd in experiment [8] and in experiment [9] were 0.54 nM and 21.9 nM, respectively. For the same molecule, the koff in [8] was 0.00192 s⁻¹; in experiment [9] it was 0.0953 s⁻¹. In addition, the association rate constant (kon) in [8] is 3.54e+06 M⁻¹ s⁻¹; in [9] it was 4.36e+06 M⁻¹ s⁻¹.

B5: lipocalin mutein SEQ ID NO: 10 (designed binder)
chain: ASDEEIQDVSGTWYLKAMTVDETCWWYVDHSVTPMTLTTLEGGNLEAKVTMNLWGFWQEVKAVLEKTDEPGKYTADGGKHVAYIIRSHVKDHYIFYSEGECQGWPVPGVWLVGRDPKNNLEALEDFEKAAGARGLSTESILIPRQSETSSPGSAWSHPQFEK
notes: as for B1
In [2], B5 displayed a dissociation constant (Kd) of 391 nM, a koff of 0.03 s⁻¹ and a kon of 70000 M⁻¹ s⁻¹. Also, in [3], the “IC50 (read off the curve)” value was approximately 3 nM.

B6: lipocalin mutein SEQ ID NO: 8 (designed binder)
chain: ASDEEIQDVPGTWYLKAMTVSGEDPEMTLESVTPMTLTTLEGGNLEANVTALIDGRCQEVKNVLEKTDEPGKYTEDGGKHVDYIIRSHVKDHYIFYFEGEGHGTPARTVALVGRDPTNNLEALEDFEKAAGARGLSTESILIPRQSETCSPGSAWSHPQFEK
notes: as for B1
Turning to B6, the midpoint of the response in experiment [1], the EC50, lay at 47 nM. In experiment [2], this molecule registered a Kd of 354 nM, an off-rate constant (koff) of 0.01 s⁻¹ and a kon of 30000 M⁻¹ s⁻¹. For the same molecule, the “IC50 (read off the curve)” value in experiment [3] is approximately 30 nM.
